From PubChem BioAssay AID488969 (Vanderbilt High Throughput Screening Facility, 2010) come the findings set out here.

Structures are written as SMILES. Whole data set: some 110,000 compounds, median “z-score” near -0.1, cut for the highest 2% near 2. Some of the results follow. Active and inactive are the calls of the source.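 The calls were made as follows: active = z-score in the third read window above 3 or below -3; inactive = the rest.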

The experiment concerns the target Metabotropic glutamate receptor 8 (Rattus norvegicus) (UniProt P70579). Description: rat mGluR8 modulators via GIRK flux, primary screen, cell-based, thallium flux, HTS (AID 488969). The following applies: HEK293 rat mGluR8, GIRK (G protein-gated inwardly rectifying potassium channel) thallium flux, FluoZin2; at 10 µM; stronger effect = higher value; submaximal glutamate (EC20) added with thallium.
UniProt P70579, sequence (P70579 whole entry, looked up): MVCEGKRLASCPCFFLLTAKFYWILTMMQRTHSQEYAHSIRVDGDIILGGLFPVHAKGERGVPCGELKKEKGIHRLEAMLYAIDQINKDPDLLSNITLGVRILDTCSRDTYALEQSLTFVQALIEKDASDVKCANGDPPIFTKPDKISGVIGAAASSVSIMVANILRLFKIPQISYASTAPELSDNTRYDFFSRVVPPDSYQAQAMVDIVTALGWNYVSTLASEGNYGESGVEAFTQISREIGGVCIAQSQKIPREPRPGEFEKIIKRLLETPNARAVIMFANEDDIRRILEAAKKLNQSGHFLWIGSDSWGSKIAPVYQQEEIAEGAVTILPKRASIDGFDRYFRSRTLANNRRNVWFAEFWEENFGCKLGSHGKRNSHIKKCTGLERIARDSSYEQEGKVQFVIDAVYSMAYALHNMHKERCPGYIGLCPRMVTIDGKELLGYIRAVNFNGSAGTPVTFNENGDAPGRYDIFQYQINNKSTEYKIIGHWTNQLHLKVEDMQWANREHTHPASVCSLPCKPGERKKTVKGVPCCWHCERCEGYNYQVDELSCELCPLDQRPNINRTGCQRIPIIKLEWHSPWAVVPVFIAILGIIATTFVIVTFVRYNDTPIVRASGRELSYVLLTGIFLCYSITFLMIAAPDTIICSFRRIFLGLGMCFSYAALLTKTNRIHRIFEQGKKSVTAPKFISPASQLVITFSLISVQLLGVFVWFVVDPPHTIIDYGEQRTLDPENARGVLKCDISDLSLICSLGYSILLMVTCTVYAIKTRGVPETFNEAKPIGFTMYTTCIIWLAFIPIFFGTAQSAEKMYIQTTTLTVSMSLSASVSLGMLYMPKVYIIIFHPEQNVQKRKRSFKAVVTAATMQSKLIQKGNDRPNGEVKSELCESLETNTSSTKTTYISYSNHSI
On to `CCc1ccc(NC(=O)CCn2ccnc2C)cc1`, for which the z-score is 0.306.
The value for `CCCOC(=O)c1[nH]c2c(c1C)C(=O)CC(c1cccs1)C2` (centres undefined) was -0.0689; that for `CCn1c(SCC(=O)N2CCCc3ccccc32)nnc1-c1cccs1` was 0.11.
The value for `CN(c1ccc(C(=O)Nc2ccccc2C(=O)N2CCCC2)cc1)S(C)(=O)=O` was -0.377; that for `CCCC(CCC(=O)Nc1ccc(C(=O)OC)cc1)C(=O)O` (centres undefined) was 0.661; that for `COc1ccc(N2CCN(C(=O)CSc3nnc(C)c(=O)[nH]3)CC2)cc1` was -0.393.
`Cc1ccc(SCc2cc(=O)[nH]c(N3CCN(Cc4ccc5c(c4)OCO5)CC3)n2)cc1` displayed a z-score of -0.465.
The figure for `C/C(=N\NC(=O)c1c(Cl)cnn1C)c1cccc(NC(=O)COc2ccccc2)c1` is -0.0839; for `COc1ccc2ccccc2c1/C=N/NC(=O)c1cccc(Br)c1` it is -1.24.
Compound `Cc1ccc(-n2c(C)cc(C=C3C(=O)CC(C)(C)CC3=O)c2C)cc1` yielded a z-score of -0.0153.
Take `Cc1cc(S(=O)(=O)Nc2ccc(C(=O)N3CCN(C(=O)c4ccco4)CC3)cc2)ccc1F`: the z-score is -0.305.
Compound `CCCN(CC(=O)Nc1cc(Cl)ccc1Cl)C(=O)/C=C/c1ccco1` came in with a z-score of -0.346.
The compound `COc1ccc2c(c1)CC/C(=C\Nc1ccc3c(c1)OCO3)C2=O` registered a z-score of -0.324.
For the compound `CN1CCN(C(CNS(=O)(=O)c2ccc(Cl)cc2)c2cccnc2)CC1` (centres undefined), the z-score was -0.426.
For the compound `C=CCn1c(Cc2ccc(OC)cc2)nnc1SCC(=O)NCCc1ccccc1`, the z-score is -0.118.
`CCOc1c(Br)cc(/C=N\NC(=O)c2ccccc2)cc1OC` showed a z-score of -0.466.
For the compound `CNC(=O)c1ccc(Nc2nnc(C)c3ccccc23)cc1`, the z-score was -0.0102.
The figure for `C=CCn1c(SCC(=O)c2c(N)n(CCC)c(=O)n(C)c2=O)nc2sc(CC)cc2c1=O` is -0.862; for `CC(NC(=O)Nc1ccc(O)cc1)(C(F)(F)F)C(F)(F)F` it is 0.187; for `OC(CNCCc1ccc(C(F)(F)F)cc1)COc1cccc2ccccc12` (centres undefined) it is -2.23.
`CC(NC(=O)CCC1COc2ccccc2O1)c1ccccc1` (centres undefined) came in with a z-score of -0.277.
The figure for `Cc1ccc(Cn2c(SCC(=O)N/N=C/c3ccc(C)o3)nc3ccccc32)cc1` is -0.169; for `O=C(O)c1ccccc1N/N=C\c1ccnc2ccccc12` it is 0.716; for `CC(C)(C)c1ccc(-c2n[nH]c(=S)n2C2CCCC2)cc1` it is active: 4.4.
Regarding `COC(=O)c1ccc(C(C(=O)NC2CCCCC2)N(C(=O)Cc2cccs2)C2CC2)cc1` (centres undefined), the z-score is -0.377.
As for `Cc1ccc(-c2nc(N)sc2CC(=O)OCC(=O)NCCC(C)C)cc1`, the z-score was -1.61.
The compound `CCCC(=O)Nc1nnc(SCC)s1` returned a z-score of 0.0928.
The figure for `CCOC(=O)c1c(-c2ccccc2)oc2ccc(O)c(CN3CCOCC3)c12` is -0.29; for `Cc1ccc(C)c(S(=O)(=O)N2CCN(C(=O)c3cnccn3)CC2)c1` it is 0.456.
Compound `COc1oc(-c2ccc(Cl)cc2)nc1C(F)(F)F` came in with a z-score of -0.129.
With `CCOC(=O)c1nc2ccccc2nc1C`, the z-score is -0.122.
For `N#CC1=C(N)C(C#N)(C#N)C(c2cccnc2)C2CN(C(=O)OCc3ccccc3)CC=C12` (centres undefined), the z-score was -0.373.
`Cc1cccc2sc(NC(=O)CCNS(=O)(=O)c3cccs3)nc12` yielded a z-score of 0.312.
`O=C(CCNC(=O)OCc1ccccc1)NC1CCCCCC1`: the z-score is -0.182.
On to `CCOc1ccc(/C=C2/SC(=S)N(n3c(C)ccc3C)C2=O)cc1`, for which the z-score was determined as 0.164.
`CC(Sc1nc2cc([N+](=O)[O-])ccc2n1-c1cccc(C(F)(F)F)c1)C(=O)NC(N)=O` (centres undefined) had a z-score of 0.945.
In the case of `CSc1snc(SCC(N)=O)c1C#N`, the z-score was -0.211.
`Cc1cc(C)n2nc(C(=O)NCc3ccco3)nc2n1` yielded a z-score of 0.654.
Compound `O=C(Nc1ccc(Cl)cc1)Nc1nc(-c2sccc2Br)cs1` showed a z-score of -0.223.
Compound `CC1CN(Cc2cc(=O)[nH]c(C3CC3)n2)CC(C)O1` (centres undefined) registered a z-score of -0.155.
`CC(OC(=O)c1cccs1)C(=O)NCc1ccco1` (centres undefined): the z-score is -0.226.
With `COc1ccc(NC(=S)NNc2ccc([N+](=O)[O-])cc2S(=O)(=O)Nc2ccc(C)cc2C)cc1`, the z-score was -0.391.
In turn, `O=C(Nc1cccc(O)c1)N1CCOCC1` displayed a z-score of 0.81.
The value for `Cc1cc(C)n(-c2nc(Nc3ccccc3C)nc(-n3nc(C)cc3C)n2)n1` was 0.188.
In turn, `Cc1ccc(-c2csc(/C(C#N)=C/Nc3ccc4c(c3)OCCO4)n2)cc1` yielded a z-score of -0.113.
Consider `CCCCC(=O)Nc1cc(C(=O)NCCc2ccccc2)ccc1Cl`, for which the z-score came to 0.145.
In the case of `CO/N=C(\c1nonc1N)N1CCN(c2ccc(Cl)cc2[N+](=O)[O-])CC1`, the z-score is -0.123.
For the compound `O=C1CC(N2CCN(Cc3ccc4c(c3)OCO4)CC2)C(=O)N1c1cccc(Cl)c1` (centres undefined), the z-score was -0.0663.
In the case of `CCC(=O)Nc1cc(C)c(NC(=O)CCc2ccccc2)cn1`, the z-score was -0.854.
The compound `Cn1ncc(N=Cc2ccccc2O)c1C(=O)N1CCOCC1` had a z-score of 0.16.
The figure for `NC(=O)c1ccsc1NC(=O)c1ccco1` is -0.0583; for `Cc1nnsc1S(=O)(=O)Cc1ccccc1Cl` it is 0.423; for `CCN1C(=O)S/C(=C\c2ccc(N3CCOCC3)cc2C)C1=O` it is -0.101.
In the case of `O=C(c1ccc(F)cc1)N1C2CCC1CC(O)(c1ccccc1F)C2` (centres undefined), the z-score was -0.291.
Turning to `Cc1cccc(C)c1NC(=O)COC(=O)C1Cc2ccccc2CN1C(=O)c1ccccc1` (centres undefined), the z-score is -0.378.
`O=C(CNCC1CCCO1)Nc1ccccc1N1CCCCCC1` (centres undefined) registered a z-score of -0.099.
With `COc1ccc(S(=O)(=O)CCC(=O)O)cc1`, the z-score stood at 0.0651.
As to `Cc1ccc(C)c2c1[nH]c1ccc([N+](=O)[O-])cc12`, the z-score is -0.0383.
As for `COc1ccc(CCNC(=S)Nc2cccc(C)c2)cc1`, the z-score came to 0.881.
The figure for `CC(C)CNC(=S)NC(=O)c1ccccc1Cl` is active: 8.99; for `CSc1ccccc1NC(=O)Nc1ccc(F)c(Cl)c1` it is -0.197.
In turn, `Cc1ccc(-c2ccc(SCC(=O)Nc3nonc3C)nn2)cc1` returned a z-score of -2.16.
`CCn1c(SC(=O)NC2CCCCC2)nnc1-c1cccs1` displayed a z-score of 0.837.
Turning to `Cc1ccc(C)c(NC(=S)Nc2ccc(S(=O)(=O)Nc3ncccn3)cc2)c1`, the z-score was found to be 0.1.
The figure for `CCn1c(-c2cc(-c3cccc(OC)c3)nc3ccccc23)n[nH]c1=S` is 1.92; for `CC12CCC(C(=O)Nc3ccccc3Br)(C/C1=N\O)C2(C)C` (centres undefined) it is -0.427; for `COc1ccc(CC(=S)N2CCOCC2)cc1` it is -0.09.
Take `O=C1CC(c2c[nH]c3ccccc23)C(=O)N1` (centres undefined): the z-score came out at 0.297.
`CCCCCC(=O)N/N=C/c1ccco1` registered a z-score of -0.231.
Compound `O=C(CNS(=O)(=O)c1ccccc1)N/N=C\c1ccc(Cl)cc1` registered a z-score of -0.283.
Regarding `COc1ccc(N2C(=O)C(Cl)=C(N3CCN(Cc4ccccc4)CC3)C2=O)cc1`, the z-score turned out to be 0.342.
`O=C(CSc1nnnn1-c1cccc2ccccc12)Nc1ccc(N2CCOCC2)c(Cl)c1` gave a z-score of 0.0404.
Compound `O=C1C(=C(c2ccccc2)c2ccccc2)Nc2ccccc21` registered a z-score of -1.32.
Compound `O=C(Nc1ccccc1Cl)N1CCN(C/C=C/c2ccccc2)CC1` yielded a z-score of 0.262.
`Cc1cccc(-c2nc(CSCC(=O)N3CCN(c4ccccn4)CC3)c(C)o2)c1` gave a z-score of -1.37.
The compound `NC(=O)c1ccc(NC(=O)COC(=O)/C=C/c2cn(-c3ccccc3)nc2-c2cccnc2)cc1` gave a z-score of -0.0296.
The figure for `Cc1cc(C(=O)CN2C(=O)NC(C)(CC(C)C)C2=O)c(C)n1-c1ccc2c(c1)OCO2` (centres undefined) is -0.498; for `CC12CC(c3ccccc3O1)C(/C(N)=N/NC(=O)c1ccc(F)cc1)C(=O)N2` (centres undefined) it is 0.232.
Compound `COc1ccc(CCNC(=O)CN(C)S(=O)(=O)c2ccc3c(c2)CCC(=O)N3)cc1OC` returned a z-score of 0.121.
Regarding `CCN(CC)S(=O)(=O)c1ccc(Cl)c(C(=O)NCc2ccccc2Cl)c1`, the z-score is -0.702.
As to `c1ccc2c(SCc3cn4cccnc4n3)ncnc2c1`, the z-score was -0.316.
The figure for `O=C1S/C(=C\c2ccccn2)C(=O)N1Cc1ccccc1F` is -0.204; for `O=[N+]([O-])c1cc(S(=O)(=O)Nc2ccccc2)ccc1NCc1ccccc1` it is -0.187.
Take `Cc1nc2c3ccccc3n(CC(=O)c3ccc(F)cc3)c(=O)n2n1`: the z-score was -0.2.
Turning to `O=C(Nc1nc(-c2ccccc2)cs1)c1ccc2c(c1)S(=O)(=O)c1ccccc1C2=O`, the z-score worked out at 0.0399.
The figure for `CN(CC(=O)OCC(=O)c1c(N)n(C)c(=O)n(C)c1=O)S(=O)(=O)c1ccc(Cl)cc1` is -0.168; for `CC(=O)N(c1ccc(Cl)cc1)c1c[nH]c2ccccc12` it is -0.182.
The figure for `O=C(c1cccc(F)c1)N1CCN(c2cccc(Cl)c2)CC1` is -0.373; for `Cc1ccc(/C=C/C(=O)NC(=S)Nc2ccccc2C(=O)NC2CCCCC2)cc1` it is -0.161.
Consider `CCOC(=O)c1c(C)[nH]c(C)c1C(=O)COC(=O)/C=C/c1cccc(F)c1`, for which the z-score was -0.6.
The figure for `CCOC(=O)c1c(C)c(C(=O)N2CCN(C(=O)c3ccco3)CC2)c(C)n1C` is -0.146; for `[N-]=[N+]=CC(=O)c1ccnc(C(=O)C=[N+]=[N-])c1` it is 0.693; for `Cc1ccc(OCCN2CCCCCC2)c(C)c1` it is -0.124.
With `CCC(=O)Nc1cccc(NC(=O)CN2CCN(c3ccccc3OC)CC2)c1`, the z-score was -0.00996.
Take `CCOC(=O)CSc1ncnc2c1sc1nc(N3CCOCC3)c3c(c12)CCCC3`: the z-score was -0.922.
On to `CCOc1ccc(C(=O)NCC(=O)OCC(=O)Nc2ccccc2OCC)cc1`, for which the z-score was -0.192.
The value for `CS(=O)(=O)N1CCN(c2ccc(NC(=O)Cc3ccccc3)cc2)CC1` was -0.115.
As for `O=C(OCC(=O)N1CCCc2ccccc21)c1cnc(Cl)c(Cl)c1`, the z-score was -0.558.
Turning to `CC12CN3CCN(CC(C3)C1(O)CN1CCCCC1)C2` (centres undefined), the z-score is 1.24.
Take `Cc1c(C(=O)N2CCc3ccccc3C2)sc2nc(-c3ccccc3)cn12`: the z-score was -0.414.
In turn, `NC(=O)C1(NC(=O)[C@@H]2CC3(CC(c4cccc(NC(=O)[C@@H]5CCC(=O)N5)c4)=NO3)CN2C(=O)c2cnccn2)CC1` (some centres undefined) registered a z-score of -0.226.
Consider `O=C(CNc1ccc2ccccc2c1)N/N=C/C=C/c1cccc([N+](=O)[O-])c1`, for which the z-score is -0.239.
The compound `O=C(Nc1ccccc1C(=O)O)c1ccc(Cl)c(S(=O)(=O)N2CCOCC2)c1` registered a z-score of -1.65.
With `COc1cccc(NC(=O)C(Sc2nnc3ccccn23)c2ccccc2)c1` (centres undefined), the z-score is -0.184.
Take `CCOC(=O)C(Cc1ccccc1)NC(=O)Cn1nnc(-c2ccccc2)n1` (centres undefined): the z-score was determined as 1.79.
In the case of `COc1ccc(Oc2coc3cc(OC(=O)/C=C/c4ccccc4)ccc3c2=O)cc1`, the z-score was -0.00706.
Compound `COc1ccccc1NC(=O)CCC(=O)c1ccc(-c2ccccc2)cc1` showed a z-score of -0.159.
With `O=C(c1ccccc1)N(Cc1cccs1)C1CCS(=O)(=O)C1` (centres undefined), the z-score was 0.358.
In the case of `NS(=O)(=O)c1cccc(NC(=O)COC(=O)C2(c3cccc(F)c3)CCCC2)c1`, the z-score worked out at 0.0402.
